From a compilation of properties of binary mixtures (doi:10.1524/zpch.2013.0326)
The densities may have been worked out from excess volumes.

Test: xn = mol fraction of the nth substance listed
Settings: 101 kPa

Cc1ccccc1 + CCCCCCCC[n+]1ccc2ccccc2c1.O=S(=O)([N-]S(=O)(=O)C(F)(F)F)C(F)(F)F
x1 = 1
Settings	mass density [kg/m3]
298.15 K	862.2
318.15 K	843.5
328.15 K	833.9
338.15 K	824.4
348.15 K	814.6

c1ccccc1 + CCCCCCCC[n+]1ccc2ccccc2c1.O=S(=O)([N-]S(=O)(=O)C(F)(F)F)C(F)(F)F
x1 = 1
Settings	mass density [kg/m3]
298.15 K	873.6
318.15 K	852.1
338.15 K	830.2
348.15 K	819.1

CCCCCCCC[n+]1ccc2ccccc2c1.O=S(=O)([N-]S(=O)(=O)C(F)(F)F)C(F)(F)F + c1ccncc1
mass density [kg/m3]
Settings	298.15 K	308.15 K	318.15 K	328.15 K	338.15 K	348.15 K
x2 = 0	1331.5	1322.8	1314.3	–	1297.6	1289.2
x2 = 0.0945	1324.1	–	–	1298.6	–	–
x2 = 0.1869	1315.9	1307.3	–	1290.4	1281.9	1273.5
x2 = 0.2762	1306.3	1297.8	1289.2	1280.7	1272.2	1263.7
x2 = 0.3675	1294.6	1286	1277.4	1268.8	1260.2	1251.7
x2 = 0.4584	1280.3	1271.6	1262.9	1254.3	1245.7	1237.1
x2 = 0.5383	1264.6	1255.8	–	1238.4	–	1221.1
x2 = 0.637	1239.5	1230.7	–	1213.2	1204.5	1195.7
x2 = 0.7274	1208.2	1199.3	1190.3	–	1172.5	1163.7
x2 = 0.8199	1162.8	–	1144.6	1135.5	–	1117.3
x2 = 0.9064	1098.4	1089	1079.6	1070.1	1060.7	1051.2

CCCCCCCC[n+]1ccc2ccccc2c1.O=S(=O)([N-]S(=O)(=O)C(F)(F)F)C(F)(F)F + Cc1ccccc1
mass density [kg/m3]
Settings	298.15 K	308.15 K	318.15 K	328.15 K	338.15 K	348.15 K
x2 = 0	1331.5	1322.8	1314.3	1306	–	1289.2
x2 = 0.0818	–	–	1304.1	1295.7	1287.3	1278.9
x2 = 0.1949	1304.5	1296	–	1279	1270.6	1262.2
x2 = 0.2746	1290.6	–	1273.6	1265.1	1256.6	1248.2
x2 = 0.3638	1273.2	1264.6	1256	–	1239	1230.5
x2 = 0.4295	1257.6	–	1240.3	–	1223.2	1214.7
x2 = 0.4775	–	–	1227.7	1219.1	–	1202.1
x2 = 0.4902	–	1233	1224.3	1215.7	1207.1	1198.6
x2 = 0.5467	1224.1	1215.4	1206.7	–	1189.4	1180.9
x2 = 0.6148	1199	1190.3	–	1172.8	1164.1	1155.5
x2 = 0.7004	1159	1150.1	1141.3	–	1123.7	1114.9
x2 = 0.7634	1122	1113.1	1104.2	1095.3	1086.3	1077.4
x2 = 0.8672	1038.4	1029.3	–	1011	1001.8	992.6

c1ccncc1 + CCCCCCCC[n+]1ccc2ccccc2c1.O=S(=O)([N-]S(=O)(=O)C(F)(F)F)C(F)(F)F
x1 = 1
Settings	mass density [kg/m3]
298.15 K	978
308.15 K	967.8
318.15 K	957.7
328.15 K	947.5
348.15 K	926.8
